Test [1] deals with T1, Rps2 ΔN42, Gal4 DNA-binding domain fusion (S. cerevisiae) (UniProt P25443).
T1 sequence: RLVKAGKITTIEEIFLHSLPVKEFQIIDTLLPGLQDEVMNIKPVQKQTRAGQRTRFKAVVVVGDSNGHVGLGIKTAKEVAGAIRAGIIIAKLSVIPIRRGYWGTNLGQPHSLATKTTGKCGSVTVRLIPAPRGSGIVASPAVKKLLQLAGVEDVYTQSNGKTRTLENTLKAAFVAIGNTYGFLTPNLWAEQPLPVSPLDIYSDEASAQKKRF
Briefly: two-hybrid; reporter strain PJ69-4A; bait fused to Gal4 DNA-binding domain (c-Myc), prey fused to Gal4 activation domain (HA); HIS3 reporter for weak, ADE2 reporter for strong interactions; plates 30°C, 3 days.

Test [2] has as its target T2, Rps2 first 22 amino acids, Gal4 DNA-binding domain fusion (S. cerevisiae) (UniProt P25443).
T2 sequence: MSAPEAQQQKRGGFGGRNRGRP
The test is described as above.

The target of test [3] is T3, Rps2 ΔN22 (residues 23–254), Gal4 DNA-binding domain fusion (S. cerevisiae) (UniProt P25443).
T3 sequence: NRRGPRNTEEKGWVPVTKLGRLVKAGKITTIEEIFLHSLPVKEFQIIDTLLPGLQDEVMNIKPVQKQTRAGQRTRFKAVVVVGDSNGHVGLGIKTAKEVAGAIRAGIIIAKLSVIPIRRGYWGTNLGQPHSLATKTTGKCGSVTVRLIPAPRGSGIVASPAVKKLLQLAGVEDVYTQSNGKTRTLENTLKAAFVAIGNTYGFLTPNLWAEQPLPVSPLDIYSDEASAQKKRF
Described as above.

In test [4] the target is T4, Rps2 N-terminal 42 amino acids, Gal4 DNA-binding domain fusion (S. cerevisiae) (UniProt P25443).
T4 sequence: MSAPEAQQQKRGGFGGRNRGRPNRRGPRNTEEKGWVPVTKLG
Described as above.

The target of test [5] is T5, Rps2, Gal4 DNA-binding domain fusion (S. cerevisiae) (UniProt P25443).
T5 sequence: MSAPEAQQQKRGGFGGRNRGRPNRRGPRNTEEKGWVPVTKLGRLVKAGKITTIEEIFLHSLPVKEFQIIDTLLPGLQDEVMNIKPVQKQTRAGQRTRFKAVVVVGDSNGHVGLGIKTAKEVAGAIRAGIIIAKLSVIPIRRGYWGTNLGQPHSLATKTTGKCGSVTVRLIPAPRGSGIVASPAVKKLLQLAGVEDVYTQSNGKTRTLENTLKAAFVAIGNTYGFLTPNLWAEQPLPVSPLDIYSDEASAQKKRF
The description is as above.

Test [6] addresses T6, Rps6a-Flag (S. cerevisiae) (UniProt P0CX37).
T6 sequence: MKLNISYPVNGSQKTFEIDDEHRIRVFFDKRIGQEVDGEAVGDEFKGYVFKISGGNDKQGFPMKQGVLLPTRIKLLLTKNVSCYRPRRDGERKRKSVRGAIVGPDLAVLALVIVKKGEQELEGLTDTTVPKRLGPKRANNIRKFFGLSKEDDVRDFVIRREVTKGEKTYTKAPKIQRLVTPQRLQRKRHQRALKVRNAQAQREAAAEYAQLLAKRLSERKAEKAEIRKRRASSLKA
Briefly: co-IP; Nap1-TAP Rps6a-Flag split purification from yeast lysate: IgG Sepharose, TEV elution, then Calmodulin Sepharose or Anti-FLAG M2 Affinity Gel; Western blotting of eluates.

Test [7] addresses T7, Nap1-TAP (S. cerevisiae) (UniProt P25293).
T7 sequence: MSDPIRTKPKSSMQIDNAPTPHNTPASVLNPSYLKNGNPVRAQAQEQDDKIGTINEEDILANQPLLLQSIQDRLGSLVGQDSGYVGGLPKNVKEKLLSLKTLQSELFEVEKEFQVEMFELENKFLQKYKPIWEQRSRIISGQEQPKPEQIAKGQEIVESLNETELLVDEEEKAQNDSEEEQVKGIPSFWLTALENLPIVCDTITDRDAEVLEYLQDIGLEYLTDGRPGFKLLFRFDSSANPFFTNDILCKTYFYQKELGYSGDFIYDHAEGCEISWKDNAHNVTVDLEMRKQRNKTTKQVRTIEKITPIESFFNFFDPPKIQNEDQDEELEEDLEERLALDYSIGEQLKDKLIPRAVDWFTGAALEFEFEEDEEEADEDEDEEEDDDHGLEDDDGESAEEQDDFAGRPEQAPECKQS
The description is as above.

The target of test [8] is T8, Rps15, Gal4 domain fusion (S. cerevisiae) (UniProt Q01855).
T8 sequence: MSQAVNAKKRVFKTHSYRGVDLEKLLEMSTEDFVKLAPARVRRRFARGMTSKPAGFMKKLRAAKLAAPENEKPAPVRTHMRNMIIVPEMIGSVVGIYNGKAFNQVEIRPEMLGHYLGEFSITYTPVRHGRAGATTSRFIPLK
Briefly: two-hybrid; reporter strain PJ69-4A; bait fused to Gal4 DNA-binding domain (c-Myc), prey fused to Gal4 activation domain (HA); HIS3 reporter for weak, ADE2 reporter for strong interactions; plates 30°C, 3 days.

We go through 3 molecules from PMC6648895.

Results are given in words; binding and its absence hold for the method and conditions named. For some assays here: Binding seen in cells or lysates may run through a third protein. Some entries that bind do so weakly or less than the wild type. For some assays here: Tags and fused reporters may be left off the sequences shown.

B1: Tsr4, Gal4 activation domain fusion (full-length) (protein, UniProt P25040 1-408)
chain: MSKIEELPPSDTDDHSYSSKPGDVFLAFVDAPVKETDDILVEDSFIGGEPKWLHPDSEPPAELLKCGACKSADNMKLLLQAFSPLDDEQMSAIQQRLGINNMSYINPQDDRVLYVFLCTECQRKGNSVRCIRGVKKNKNVDSLSEKMASTSLEKDFQINPFDLSNNSDSKCNAFSSNPFGGANANPFGADSINSNISQSKDEGKKKESATVSAKTARKLHDLQKDKEYDGNKCFKSCLLYVEEETFKNKKPAHLQLPKNLKIDKEALDLTGDEDLEKDPIKLDPRTEKLSKFLDDDTFQKFQEVVGYNPLQVLRYDLGGKPLLYAETKVDILSTVPRPGYNPSSQRIFEMQLMPKMIFDLEEVVSVDNGMEWGTILVFTDVENYMPEFDEHGVGYVEECVKVQWESRT
With B1, the binding result is reported as “no binding” in test [1]; “binds weakly” in test [2]; “binds weakly” in test [3]; “binds” in test [4]; “binds” in test [5].

B2: Enp1 (protein, UniProt P38333 1-483)
chain: MARASSTKARKQRHDPLLKDLDAAQGTLKKINKKKLAQNDAANHDAANEEDGYIDSKASRKILQLAKEQQDEIEGEELAESERNKQFEARFTTMSYDDEDEDEDEDEEAFGEDISDFEPEGDYKEEEEIVEIDEEDAAMFEQYFKKSDDFNSLSGSYNLADKIMASIREKESQVEDMQDDEPLANEQNTSRGNISSGLKSGEGVALPEKVIKAYTTVGSILKTWTHGKLPKLFKVIPSLRNWQDVIYVTNPEEWSPHVVYEATKLFVSNLTAKESQKFINLILLERFRDNIETSEDHSLNYHIYRAVKKSLYKPSAFFKGFLFPLVETGCNVREATIAGSVLAKVSVPALHSSAALSYLLRLPFSPPTTVFIKILLDKKYALPYQTVDDCVYYFMRFRILDDGSNGEDATRVLPVIWHKAFLTFAQRYKNDITQDQRDFLLETVRQRGHKDIGPEIRRELLAGASREFVDPQEANDDLMIDVN
For the molecule B2, the binding entry in test [6] and in test [7] was “binds” each time.

B3: Sef1, Gal4 domain fusion (protein, UniProt P34228 1-1148)
chain: MVKDNRDSDQDQDFSSAHMKRQPEQQQLQQHQFPSKKQRISHHDDSHQINHRPVTSCTHCRQHKIKCDASQNFPHPCSRCEKIGLHCEINPQFRPKKGSQLQLLRQDVDEIKSKLDTLLANDSVFVHLLQQIPMGNSLLNKLNLHPTPTPGTIIPNPDSSPSSGSPTSSAAQRDSKVSVQTYLSREPQLLQANQGSNTNKFKANNEASSHMTLRASSLAQDSKGLVATEPNKLPPLLNDSALPNNSKESLPPALQMAFYKNNSAGNTPNGPFSPIQKTYSPHTTSTTVTTTTNQPPFAATSHVATNNNADRTKTPVVATTTTMPLLPSPHANVDEFVLGDISISIEKANRLHHIFVTRYLPYFPIMYSNNATELYSQSQLLFWTVMLTACLSDPEPTMYCKLSSLIKQLAIETCWIRTPRSTHISQALLILCIWPLPNQKVLDDCSYRFVGLAKSLSYQLGLHRGEFISEFTRTQTSMPNAEKWRTRTWLGIFFAELCWASILGLPPTSQTDYLLEKALSCGDEESEEDNNDSIDNNNNDKRNKKDEPHVESKYKLPGSFRRLLSLANFQAKLSHIIGSSTSSPDGLLEPKYRAETLSILGKELDLLAKTLNFQSDDTVNIYFLYVKLTVCCFAFLPETPPTDQIPYVTEAYLTATKIVTLLNNLLETHQLIELPIYIRQAATFSALILFKLQLTPLLPDKYFDSARQSVVTIHRLYRNQLTAWATSVENDISRTASMLEKLNFVLIMHPEVFVEEDGIISRMRSHLTGSLFYDLVWCVHEARRREMDPEYNKQALEKAAKKRKFSSNGIYNGTSSTGGITDRKLYPLPLYNHISRDDFETVTKTTPSGTTVTTLVPTKNALKQAEKLAKTNNGDSDGSIMEINGIPLSMLGETGSVKFQSLFANTSNSNDYNNNRTLLDASNDISIPSNSIYPVASVPASNNNPQSTKVDYYSNGPSVIPDLSMKRSVSTPVNHFPASVPGLRNHPVGNLSNNVTLGIDHPIPREHSNLQNVTMNYNNQFSNANAIGRSQSSMSHSRTPIASKSNNMTDLHSVVSDPGSSKSTAYPPLSLFSKSNDINSNKTNQRFSTGTNTVTSSNFQTIDNENNVKTPGNKLTDFFQQQSAGWIEGNSSNDDFFGWFDMNMEQGF
B3: the binding result in test [8] is listed as “no binding”.
